The text below walks through data of ChEMBL document CHEMBL1201862, “PubChem BioAssay data set” (2004).

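Method: 48-hour compound exposure of cells in 96-well plates, five concentrations, linear interpolation of endpoints. GI50: concentration for 50% inhibition of growth.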 Activity calls are given as the source filed them. No stated cut-off is given here; in the data, active = GI50 up to about 1.1 µM and inactive = higher.

For the test, the system named is NCI-H322M. The test can be described thus: DTP human tumour cell line panel, 48 h.
On to `c1ccc2sc(SCSc3nc4ccccc4s3)nc2c1`, for which the GI50 (commonly the concentration at which growth is held to half of that of the control) is inactive: > 100 µM.
For `Oc1cc(-c2ccco2)nc2cc3c(cc12)OCO3`, the GI50 is inactive: > 100 µM.
For `CCN(CC)C(=S)SC1CCOP(=O)(N(CCCl)CCCl)N1C` (stereo unspecified), the GI50 is inactive: > 79.6 µM.
Regarding `Cc1ccc(N(O)C(C)(C)C)cc1`, the GI50 is inactive: > 100 µM.
Consider `O=[N+]([O-])c1cc(Cl)ccc1Sc1ccccc1`, for which the GI50 is inactive: > 100 µM.
As for `CNC(=O)SCC(N)C(=O)O` (stereo unspecified), the figure is inactive: > 92.3 µM.
Then `CC(C)C(=O)/C=C/c1ccc(Cl)cc1Cl`, with inactive: 14.8 µM; and `Cc1cc(C)nc(NS(=O)(=O)c2ccc(NC(=O)c3ccc4nc5ccccc5c(Nc5ccc(S(=O)(=O)N=C(N)N)cc5)c4c3)cc2)n1`, with inactive: > 100 µM.
Then `O=c1c2cc(S(=O)(=O)Nc3ccccc3Cl)ccc2ncn1NS(=O)(=O)c1ccc(Br)cc1`, with inactive: > 37.5 µM.
In the case of `CCCCOC(=O)C(=O)C(CCC(=O)c1ccc(C)cc1)C(=O)C=C(C)C` (stereo unspecified), the GI50 was inactive: > 100 µM.
`Cc1nc(Nc2ccccc2)sc1C(=O)NNc1ccc([N+](=O)[O-])cc1[N+](=O)[O-]`: the GI50 is inactive: 53.7 µM.
Take `C=C(CO)CC(O)c1cc(OC)ccc1OC` (stereo unspecified): the GI50 was inactive: > 100 µM.
Then `COC(=O)C(NC(=O)c1ccccc1)C(c1ccc(Cl)cc1)P(=O)(OC)OC` (stereo unspecified), with inactive: > 100 µM.
Then `CC(C)(C)C(=O)CC1(O)C=C(O)C(O)(CC(=O)C(C)(C)C)O1` (stereo unspecified), with inactive: > 100 µM; and `C[N+](C)(C)CCc1ccccc1`, with inactive: > 100 µM.
As for `O=C(CC1C(=O)Nc2ccccc2S1(=O)=O)Nc1ccc(Cl)cc1` (stereo unspecified), the figure is inactive: 58.5 µM; as for `C#CCn1c(=O)[nH]c(=O)c2cccnc21`, inactive: > 100 µM; as for `CCOC(=O)c1c(C)n(Cc2ccccc2)c(=O)c2ccccc2c(=O)c2c(=O)ccc(=O)c1=2`, inactive: > 100 µM.
Regarding `COc1ccc(N2NC(c3ccccc3)(c3ccccc3)C(C)C2=O)cc1` (stereo unspecified), the GI50 was inactive: > 100 µM.
As to `CCOC(=O)C1C(c2ccc([N+](=O)[O-])cc2)NC(c2ccc([N+](=O)[O-])cc2)C(C(=O)OC)S1(=O)=O` (stereo unspecified), the GI50 was inactive: > 100 µM.
As to `CCOC(=O)n1[nH]c(=O)n(-c2ccccc2)c1=O`, the GI50 was inactive: > 100 µM.
Then `N#Cc1nnc2ccccc2c1N`, with inactive: > 100 µM; and `O=c1c2ccccc2c2ccccc2c(=O)n1Cc1ccc2c(c1)OCO2`, with inactive: > 50.2 µM; and `COc1cc(C2c3cc4c(cc3C(O)C3CCC(=O)N23)OCO4)cc(OC)c1OC` (stereo unspecified), with inactive: 55.3 µM.
Then `CN(C)CN(C)c1nc(N(C)C)nc(N(C)C)n1`, with inactive: > 100 µM; and `CN(/N=C\c1ccc2ccccc2c1)C1=NCCCN1`, with inactive: 17.2 µM.
Regarding `CC(C)(Oc1ccc(C(=O)c2ccc(Cl)cc2)cc1Cl)C(=O)N1CCN(CCO)CC1`, the GI50 is inactive: > 10 µM.
As to `O=C(c1ccc(Cl)c(Cl)c1)N(C(=O)N1CCN(c2ccccc2)CC1)S(=O)(=O)c1ccccc1`, the GI50 is inactive: > 100 µM.
Then `S=c1nc(N/N=C/c2cccs2)c2cn[nH]c2[nH]1`, with active: 0.861 µM.
Regarding `CCN1CCC(O)(/C=C/c2ccc(OC)cc2)C(C(=O)/C=C/c2ccc(OC)cc2)C1` (stereo unspecified), the GI50 is inactive: 14.2 µM.
`COc1ccc(/C=C2\CCC(CN(C)C)C2=O)cc1` (stereo unspecified): the GI50 is inactive: 16.8 µM.
In the case of `CC(=O)OCC1OC(O/C=C(\CN=[N+]=[N-])C(C)=O)C(OC(C)=O)C(OC(C)=O)C1OC(C)=O` (stereo unspecified), the GI50 is inactive: 22 µM.
Then `CN1C(=O)c2ccccc2C(O)(c2ccccc2)C1(O)c1ccccc1` (stereo unspecified), with inactive: > 100 µM; and `CCOC(=O)c1cc2c3c(c(C(C)=O)c(OC)c2[nH]1)N(C(=O)CC)CC3`, with inactive: 12.7 µM; and `CC1C(=O)OC2CC[N+]3(CC(=O)c4ccc(Br)cc4)CC=C(COC(=O)C(C)(O)C1(C)O)C23` (stereo unspecified), with inactive: > 375 µM.
Then `CCOc1cc(/C=N/c2nc3cc4sc(/N=C/c5ccc(O)c(OCC)c5)nc4cc3s2)ccc1O`, with inactive: > 100 µM; and `O=C(O)c1ccc(OCc2nc3cc(C(F)(F)F)ccc3nc2-c2ccccc2)cc1`, with inactive: 64.1 µM.
As to `Cc1ccc(O)c(-c2cc(-c3ccccc3)nc(/N=C\c3ccccc3)n2)c1`, the GI50 is inactive: 48.1 µM.
In the case of `O=[N+]([O-])c1ccc(CSc2nncc3[nH]cnc23)cc1`, the GI50 was inactive: > 100 µM.
Then `O=c1oc2ccccc2cc1-c1csc(Nc2ccc(F)cc2)n1`, with inactive: 3.91 µM; and `O=C1c2ccccc2-c2[nH]c3cn[nH]c(=O)c3c21`, with inactive: > 100 µM; and `O=C1CC(c2c(-c3ccccc3)[nH]c3ccccc23)C(=O)N1c1ccccc1` (stereo unspecified), with inactive: 88.3 µM.
As for `Brc1c2c(c(Br)c3nsnc13)N=S=N2`, the figure is inactive: > 89.7 µM; as for `COc1ccc(-c2c(C(C)=O)c(C)n(C3OC(COC(C)=O)C(OC(C)=O)C(OC(C)=O)C3OC(C)=O)c(=S)c2C#N)cc1` (stereo unspecified), inactive: > 100 µM; as for `C=CCN1C(=O)/C(=C/c2ccccc2)N=C1SC1OC(COC(C)=O)C(OC(C)=O)C(OC(C)=O)C1OC(C)=O` (stereo unspecified), inactive: 17.6 µM.
Then `COc1ccccc1/N=N/C(=N\NC(=O)c1ccc(C)cc1)c1ccc(N(CCC#N)CCC#N)cc1C`, with inactive: 57.4 µM; and `N#Cc1nc(Sc2cnsn2)c(Sc2cnsn2)nc1C#N`, with inactive: 30.8 µM; and `CC(=S)N/C=C1/C(=O)C=C(C)OC1=O`, with inactive: > 100 µM.
For the molecule `CCN(C(=N)C#N)c1ccccc1`, the GI50 was inactive: > 100 µM.
For `Cc1ccc(/C=C(\C#N)c2ccccc2)cc1`, the GI50 was inactive: > 100 µM.
As for `Cc1cc(-c2ccccc2)cc2[n+]1CC=C2.[O-][Cl+3]([O-])([O-])[O-]`, the figure is inactive: > 100 µM; as for `N=C(N)CCNC(=O)C1CCC(N)=N1` (stereo unspecified), inactive: 8.22 µM.
Then `O=C(CN(Cc1ccccc1)Cc1ccccc1)N1CCc2c([nH]c3ccccc23)C1c1cccnc1` (stereo unspecified), with inactive: 36.6 µM; and `CN(CCCNc1ccc2ncn3c4ccccc4c(=O)c1c23)CCCN1C(=O)c2cccc3cc([N+](=O)[O-])cc(c23)C1=O`, with active: 0.0142 µM.
As to `O=C1CC(S(=O)(=O)O)C=C1Nc1cccc(Cl)c1` (stereo unspecified), the GI50 was inactive: > 100 µM.
As for `CC1CC2(CC[C@@H]1O)OCCO2` (stereo partly specified), the figure is inactive: > 100 µM; as for `CC1=C(N2CC2)C(=O)c2nc3n(c2C1=O)CCC3O` (stereo unspecified), active: 0.38 µM.
With `O=C(/C=C/c1ccc(O)c(O)c1)OCC(OC(=O)/C=C/c1ccc(O)c(O)c1)C(=O)O` (stereo unspecified), the GI50 is inactive: > 100 µM.
As for `CC(=O)c1c(O)nnc(-c2ccc(Cl)cc2)c1-c1ccc(Cl)cc1`, the figure is inactive: 38.6 µM; as for `CCCc1cc2c(cc1O)CC[C@@H]1[C@@H]2CC[C@]2(C)[C@@H](O)CC[C@@H]12`, inactive: 17.3 µM.
For the molecule `Cc1ccnc2nc(-c3cccc4ccccc34)cc(O)c12`, the GI50 was active: 0.042 µM.
